{"source": "PubChem BioAssay AID686978", "about": "(National Center for Advancing Translational Sciences (NCATS), 2013)", "note": "Out of some 420,000 compounds screened, about 64,000 (15%) were called active. Inconclusive results, whose numbers are uncertain, are shown with a selection of clear calls. Calls follow the shape of the dose curve; as a rule, active = well fitted inhibition curve with a large enough effect; inconclusive = small, poorly fitted or top-dose-only effect; inactive = flat fitted curve, though single readings scatter. No potency is given beside an inconclusive call; the fits are too rough. % is scaled to controls: 0 for no effect and ±100 for the full control effect; potency is read from the fitted curve at half-maximal effect; tags tell the direction and shape of the fitted curve."}
{"assay": "qHTS for Inhibitors of human tyrosyl-DNA phosphodiesterase 1 (TDP1): qHTS in cells in absence of CPT; also: nearly all actives have a fitted effect of over 55% in size", "settings": "DT40 Tdp1-/- hTDP1 cells, no CPT, ATP luminescence, 48 h; activity change, negative = growth inhibition: at 46.2 µM (top of the series) unless noted", "procedure,_shortened": "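Growth of hTDP1-complemented DT40 Tdp1-knockout cells is measured by ATP luminescence after at least 48 hr compound exposure at 37 °C, with DMSO substituting for the 20 nM CPT used in the parallel screen.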"}
{"compound": "Cc1ccc(CNC(=O)CCc2nc3cccnc3n2Cc2ccccc2)cc1", "Potency": "inconclusive [inhibitor, single point]"}
{"compound": "O=C(c1noc2c1CCCC2)N1CCC(CO)(Cc2ccccc2Cl)CC1", "Potency": "inconclusive [inhibitor, single point]"}
{"compound": "CCC(=O)NC(=S)NNC(=O)COc1ccc(Br)cc1", "activity change, negative = growth inhibition": "inactive: 1.22%"}
{"compound": "CC(=O)Nc1ccc(NC(=O)C(NS(=O)(=O)c2ccc(Br)s2)c2ccccc2)cc1", "note": "(stereo not given)", "Potency": "inconclusive [inhibitor, single point]"}
{"compound": "O=C(CSc1nc2ccccc2[nH]1)N/N=C/c1ccco1", "activity change, negative = growth inhibition": "inactive: -17%"}
{"compound": "COc1ccccc1/C=C\\C(=O)NCC(=O)N/N=C(/C)c1cccc([N+](=O)[O-])c1", "Potency": "inconclusive [inhibitor, single point]"}
{"compound": "CCOc1ccc(S(=O)(=O)N2CCN(C(=O)c3cc4ccccc4o3)CC2)cc1", "Potency": "active: 20.6 µM"}
{"compound": "O=C(OCC(=O)N1CCCc2ccccc21)c1cc(S(=O)(=O)N2CCOCC2)ccc1Cl", "Potency": "inconclusive [inhibitor, single point]"}
{"compound": "CCOC(=O)C1CCCN(C(=O)c2ccc3nc(-c4cccc(OC)c4)oc3c2)C1", "note": "(stereo not given)", "Potency": "active: 2.91 µM"}
{"compound": "CCNC(=S)Nc1ccc(OCC)cc1", "activity change, negative = growth inhibition": "inactive: -28%"}
{"compound": "COC(=O)c1sccc1NC(=S)Nc1cc(C)ccc1OC", "activity change, negative = growth inhibition": "inactive: 3.72%"}
{"compound": "CCC1OC(=O)C(C)[C@@H](O[C@H]2C[C@@](C)(OC)C(O)C(C)O2)C(C)[C@@H](O[C@@H]2OC(C)CC(N(C)C)C2O)[C@](C)(O)CC(C)/C(=N\\OCOCCOC)[C@H](C)C(O)[C@]1(C)O", "note": "(stereo not given in full)", "activity change, negative = growth inhibition": "inactive: -16.5%"}
{"compound": "CC(=O)Nc1cccc(-c2cc(NC=O)c3ncc(-c4cccc(C(C)=O)c4)n3c2)c1", "Potency": "active: 20.6 µM"}
{"compound": "CC(C)C[C@H]1CNC(=S)N1C[C@H]1CCCN1C[C@H](CC(C)C)N1C[C@H](Cc2ccc(O)cc2)N(CCc2ccccc2)C1=S", "Potency": "active: 18.4 µM"}
{"compound": "CCOC1=C2[C@H]([C@H]3C(=O)N(c4ccccc4)C(=O)[C@H]3C1)[C@@H](C(C)C)N(S(=O)(=O)c1ccc(C)cc1)[C@H]2c1ccccc1", "Potency": "inconclusive [inhibitor, single point]"}
{"compound": "CC(C)(C)C1CCc2onc(C(=O)NC3CCCC3)c2C1", "note": "(stereo not given)", "Potency": "inconclusive [inhibitor, partial curve]"}
{"compound": "CCOc1ccc2nc(N(Cc3cccnc3)C(C)=O)sc2c1", "activity change, negative = growth inhibition": "inactive: -6.43%"}
{"compound": "Cc1ccc(NC(=S)Nc2ccc(Br)cc2)cc1", "Potency": "inconclusive [inhibitor, partial curve, poor fit]"}
{"compound": "Cc1ccc(N=Cc2c(O)n(-c3nccs3)c(=O)c3ccccc23)c(C)c1", "Potency": "inconclusive [inhibitor, full curve]"}
{"compound": "CCCCn1c(/N=C/c2cc(OC)ccc2O)nc2ccccc21", "Potency": "inconclusive [inhibitor, single point]"}
{"compound": "COCc1oc2ccc(NS(=O)(=O)c3ccc(C)cc3)cc2c1C(=O)OC", "Potency": "active: 2.31 µM"}
{"compound": "CC(C)NC(=O)C1(C)CCN1C(=O)c1c(F)cccc1F", "note": "(stereo not given)", "activity change, negative = growth inhibition": "inactive: 7.55%"}
{"compound": "CCCc1ccc(OC(C)c2nc(-c3ccc(-n4cccc4)cc3)no2)cc1", "note": "(stereo not given)", "Potency": "inconclusive [inhibitor, single point]"}
{"compound": "COc1cc(NC(=O)C23CC4CC(C2)CC(n2cnc([N+](=O)[O-])n2)(C4)C3)cc(OC)c1", "Potency": "inconclusive [inhibitor, partial curve]"}
{"compound": "CSc1nc2c(c(=O)[nH]c(=O)n2C)n1CCCc1ccccc1", "activity change, negative = growth inhibition": "inactive: -22.7%"}
{"compound": "O=C(c1cc2sccc2n1Cc1ccc(F)cc1)N1CCc2ccccc21", "Potency": "inconclusive [inhibitor, single point]"}
{"compound": "N#Cc1cccc(NC(=O)c2cc(C3CCCCN3C(=O)CCCc3ccccc3)on2)c1", "note": "(stereo not given)", "Potency": "inconclusive [inhibitor, single point]"}
{"compound": "O=C(CCNS(=O)(=O)c1ccccc1F)N1CCN(C(c2ccccc2)c2ccccc2)CC1", "Potency": "inconclusive [inhibitor, single point]"}
{"compound": "Cc1cc(Nc2ccc(O)cc2)ccc1N", "Potency": "active: 3.16 µM"}
{"compound": "CC(=O)N1CCc2cc(S(=O)(=O)NC(Cc3ccccc3)C(=O)NCc3ccccc3Cl)ccc21", "note": "(stereo not given)", "activity change, negative = growth inhibition": "inactive: -20.4%"}
{"compound": "CC(C)(C)C1CCC2(CC1)SCC(=O)N2c1ccccc1", "note": "(stereo not given)", "Potency": "inconclusive [inhibitor, single point]"}
{"compound": "Cc1cc(NC(=O)COc2cccc(Oc3ccccc3)c2)no1", "Potency": "inconclusive [inhibitor, partial curve, poor fit]"}
{"compound": "COc1ccc2[nH]cc(S(=O)(=O)c3ccc(F)cc3)c(=O)c2c1", "Potency": "inconclusive [inhibitor, partial curve]"}
{"compound": "Clc1ccc(-c2noc(CN3CCCC3)n2)cc1", "Potency": "inconclusive [inhibitor, single point]"}
{"compound": "CCOc1ccccc1N(C)S(=O)(=O)c1ccc2c(c1)CC(C)N2C(=O)C1CC1", "note": "(stereo not given)", "Potency": "active: 16.4 µM"}
{"compound": "COC(=O)c1cccc(NC(=O)N(C)CCc2c(C)nn(C)c2C)c1", "activity change, negative = growth inhibition": "inactive: -2.52%"}
{"compound": "O=C(C(Cc1ccccc1)NS(=O)(=O)c1cccc2cccnc12)N1CCc2ccccc21", "note": "(stereo not given)", "Potency": "inconclusive [inhibitor, single point]"}
{"compound": "COC(=O)c1ccc(NC(=O)CSC2=Nc3ccccc3C3CC=NN23)cc1", "note": "(stereo not given)", "Potency": "active: 23.1 µM"}
{"compound": "CCN(CC)CCCNC(=O)C1CCN(C(=O)c2oc3cc4sc(N(C)C)nc4cc3c2C)CC1", "activity change, negative = growth inhibition": "inactive: -8.03%"}
{"compound": "CS(=O)(=O)Nc1cccc(-c2cn3ccccc3n2)c1", "activity change, negative = growth inhibition": "inactive: -17.7%"}
{"compound": "Cn1cnc(S(=O)(=O)Nc2ccc(OC(F)F)cc2)c1", "activity change, negative = growth inhibition": "inactive: -1.19%"}
{"compound": "COc1ccc(/C=N/n2c(SC)nnc(C(C)(C)C)c2=O)c(OC)c1", "Potency": "inconclusive [inhibitor, single point]"}
{"compound": "Cc1ccc(NC(=O)CSc2nc3ncc(Cl)cc3[nH]2)c(C)c1", "activity change, negative = growth inhibition": "inactive: -0.0943%"}
{"compound": "CCc1ccc(-n2nc3ccc(NC(=O)c4cc(Cl)c(OC)c(Cl)c4)cc3n2)cc1", "Potency": "inconclusive [inhibitor, partial curve, poor fit]"}
{"compound": "Cc1ccc(CNC(=O)c2cc3c(s2)CN(Cc2ccccc2)C3)cc1", "activity change, negative = growth inhibition": "inactive: -11.9%"}
